Results published in publication PMC4336329 (PLoS ONE, 2015).
Out of some 310,000 compounds screened, about 14,000 (4.5%) showed an effect of 50% or more. Effects have a minus sign here. The list shows a part of the results.

The compounds below were run against human ether-à-go-go-related gene (hERG) potassium channel (human, UniProt Q12809) (assay: primary screen, population patch clamp on CHO cells stably expressing hERG).
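Also: peak tail current of the secondary pulse compared with the same well before compound.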

Sequence of human ether-à-go-go-related gene (hERG) potassium channel (Q12809 whole entry, looked up): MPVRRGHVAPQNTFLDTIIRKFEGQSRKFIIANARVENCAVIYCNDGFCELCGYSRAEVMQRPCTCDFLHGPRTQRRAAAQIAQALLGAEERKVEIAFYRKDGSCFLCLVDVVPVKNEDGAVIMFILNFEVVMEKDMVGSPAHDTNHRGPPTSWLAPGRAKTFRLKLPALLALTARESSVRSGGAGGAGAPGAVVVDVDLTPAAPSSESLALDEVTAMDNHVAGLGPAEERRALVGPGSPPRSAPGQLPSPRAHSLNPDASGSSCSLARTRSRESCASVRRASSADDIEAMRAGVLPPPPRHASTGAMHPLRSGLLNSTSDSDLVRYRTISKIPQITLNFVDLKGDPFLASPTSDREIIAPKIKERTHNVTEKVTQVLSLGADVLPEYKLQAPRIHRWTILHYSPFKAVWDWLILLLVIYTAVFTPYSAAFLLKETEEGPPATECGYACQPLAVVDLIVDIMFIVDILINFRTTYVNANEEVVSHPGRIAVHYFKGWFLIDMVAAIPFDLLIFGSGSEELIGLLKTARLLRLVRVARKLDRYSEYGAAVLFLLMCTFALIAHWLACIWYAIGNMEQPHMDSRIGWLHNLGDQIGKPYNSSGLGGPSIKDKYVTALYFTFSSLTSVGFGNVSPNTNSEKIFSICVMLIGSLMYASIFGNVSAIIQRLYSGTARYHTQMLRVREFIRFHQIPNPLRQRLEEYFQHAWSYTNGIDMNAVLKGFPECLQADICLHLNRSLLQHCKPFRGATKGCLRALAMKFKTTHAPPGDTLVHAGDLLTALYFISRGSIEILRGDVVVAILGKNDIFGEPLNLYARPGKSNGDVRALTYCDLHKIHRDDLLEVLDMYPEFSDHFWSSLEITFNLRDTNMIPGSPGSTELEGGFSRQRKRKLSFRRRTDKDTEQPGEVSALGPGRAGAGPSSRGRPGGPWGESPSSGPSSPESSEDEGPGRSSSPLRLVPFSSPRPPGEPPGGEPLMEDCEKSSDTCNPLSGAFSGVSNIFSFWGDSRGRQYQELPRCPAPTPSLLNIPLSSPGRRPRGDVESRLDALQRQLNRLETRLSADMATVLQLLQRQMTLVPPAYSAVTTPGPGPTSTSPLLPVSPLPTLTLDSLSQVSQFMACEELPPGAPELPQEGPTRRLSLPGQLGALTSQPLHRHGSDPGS

Row | SMILES | hERG current change (%, negative = inhibition) at 10uM [%]
1 | CC12CC3(C)CC(C)(C1)CC(C(=O)NCc1ccccn1)(C2)C3 | -19.2
2 | COc1cccc(CNC(=O)CCC2CCCN(c3cc(C)nc(N4CCCC4)n3)C2)c1 (centres unmarked) | -75
3 | CN(C)c1nc(NCc2ccccc2)nc(N/N=C/c2ccccc2F)n1.Cl | 3.33
4 | COc1ccc(C(C)C)cc1S(=O)(=O)N1CCC(C(=O)N2CCN(C)CC2)CC1 | 6.34
5 | CSc1nnc(CCCCCCCCc2nnc(SC)o2)o1 | 0.0249
6 | Cn1c(-c2ccc3c(c2)OCO3)c(C(=O)O)c(=O)c2ccccc21 | 19.2
7 | C[C@@H](O)CC#Cc1ccc2oc(=O)c(-n3cc(-c4ccsc4)nn3)cc2c1 | 17.4
8 | CCOC(=O)c1c(NC(=S)NCC2CCCO2)sc(C)c1C (centres unmarked) | 22.8
9 | Cc1cccc(-c2n[nH]c(=S)n2/N=C/c2ccc(C)s2)c1 | -0.152
10 | COc1ccc(OC)c(CCNC(=O)c2ccc(CS(=O)Cc3cccc(Cl)c3)o2)c1 (centres unmarked) | -33.5
11 | O=C(COC(=O)c1ccc(Cl)nc1)NCCNC(=O)COC(=O)c1ccc(Cl)nc1 | -6.45
12 | CN1c2ccccc2C(C)(C)C12CC(c1cccc(S(=O)(=O)N3CCCC3)c1)=NO2 (centres unmarked) | 2.91
13 | Cc1ccc(N2C(=O)C3C(C2=O)N2C(c4cccs4)C4C(=O)N(c5ccc(C)cc5)C(=O)C4N2C3c2cccs2)cc1 (centres unmarked) | 3.78
14 | CCN(C(=O)c1cc(Cl)ccc1OC)C1CCCCC1 | -18.7
15 | C/C(=N\NC(=O)c1ccc2c(c1)OCO2)c1ccc(NC(=O)CCCC(=O)O)cc1 | 21
16 | CC(C)OP(=O)(OC(C)C)/C(C=O)=N\Nc1ccc([N+](=O)[O-])cc1 | -55.1
17 | O=C(CN1C(=O)/C(=C/c2ccco2)SC1=S)Nc1ccc(O)c(C(=O)O)c1 | 25.2
18 | O=C(NC12CC3CC(CC(C3)C1)C2)c1ccc(-c2ccccc2Cl)o1 | -1.37
19 | NS(=O)(=O)c1ccc(NC(=O)CN2CCCC2)cc1 | 3.7
20 | Cc1c(NC(=O)c2cc(-c3cccs3)on2)c(=O)n(-c2ccccc2)n1C | -29.7
21 | Cc1[nH]c2ccccc2c1-c1nc(-c2ccc(Cl)cc2)nnc1-c1ccccc1 | 24.3
22 | CC(C)CN(C(=O)COC(=O)CNC(=O)c1ccccc1)c1c(N)n(Cc2ccccc2)c(=O)[nH]c1=O | 11.6

Row | SMILES | hERG current change (%, negative = inhibition) at 10uM [%]
23 | CC(=O)N/C(=C\c1ccc(Br)s1)C(=O)O | 29
24 | C(=C\c1nnc2c3ccccc3ncn12)/c1ccccc1 | -21.8
25 | Cc1cccc(OCC(=O)Nc2sc3c(c2C#N)CCC3)c1 | 1.65
26 | CCc1nc(NCc2ccccc2)c(C#N)c2c1CCCC2 | 23.3
27 | Cc1cc(C(=O)N2CCc3ccccc32)c2cc(F)ccc2n1 | -4.52
28 | CN1CCN(Cc2cc3c(cc2[N+](=O)[O-])OCO3)CC1 | 2.35
29 | CCN1CCCC1CNC(=O)C1CCCN(S(=O)(=O)c2cccc3nsnc23)C1 (centres unmarked) | -14.6
30 | CN(C)CCCCOc1ccc(F)cc1.O=C(O)C(=O)O | -17.1
31 | O=C(COC(=O)c1ccc(Cl)cc1[N+](=O)[O-])NC(=O)c1ccccc1 | 15.1
32 | O=C1N/C(=N\N=C\c2ccco2)SC1Cc1ccc(F)cc1 (centres unmarked) | 14
33 | Cc1ccc(S(=O)(=O)N2CCN(C(=O)Cn3c(=O)oc4ccccc43)CC2)c(C)c1 | 12.2
34 | Cc1nnc(Sc2nc3c(c(=O)[nH]c(=O)n3C)n2Cc2ccccc2)s1 | -24.8
35 | CCNc1nc(Cl)nc(NC(C)C)n1 | 12.5
36 | Cc1cc(C(=O)Nc2sc(C)c(-c3ccc(F)cc3)c2C(N)=O)no1 | 20.2
37 | CCOc1ccc(CNc2ccc(N3CCN(Cc4ccccc4)CC3)cc2)cc1 | 13.1
38 | Cn1c(C(N)=O)cnc1Sc1ncc(C(F)(F)F)cc1Cl | 11.8
39 | O=C(O)C1CC=CCC1C(=O)N1CCCC1 (centres unmarked) | 0.477
40 | COc1ccc(/C=N/OCC(=O)N(Cc2ccccc2)c2ccccc2C(=O)O)cc1 | -4.04
41 | COC(=O)c1cc(CNC(=O)c2ccccc2OCc2c(C)noc2C)ccc1OC | -18
42 | c1ccc(C2=NNC(c3ccccn3)=NN2)nc1 | 6.51
43 | CCCNC(=O)/C=C/C(=O)O | 9.27
44 | COc1ccc(OC)c(NC(=O)c2cc(S(=O)(=O)N(C)C)ccc2N2CCCC2)c1 | -68.1
